Test results from publication PMC10192129.
These are yes or no findings as the source states them, for the method shown. Some entries that bind do so weakly or less than the wild type.

Sequences of proteins named here, by UniProt entry; tags and fusion partners are left off. A change or cut given only in a name is not applied to a line headed by its entry.
UniProt A0A218KHF5: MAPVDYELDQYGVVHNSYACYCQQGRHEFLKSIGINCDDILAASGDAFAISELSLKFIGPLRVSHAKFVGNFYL

Experiments:
[1] = biological target: 6 × His-APT1 fusion protein (acyl-protein thioesterase 1, Medicago truncatula) (Medicago truncatula); assay: nonreducing SDS-PAGE with immunoblot; purified APT1 treated with 10 mM GSH, then with H2O2 (40 μM and 200 μM); both purified
[2] = biological target: 6 × His-APT1 fusion protein (acyl-protein thioesterase 1, Medicago truncatula) (Medicago truncatula); assay: condition: only with different concentrations of 2-ME during purification; nonreducing SDS-PAGE with immunoblot; purified 6 × His-APT1 after treatment with a thiol reducing agent (1 mM DTT, 10 mM GSH, 10 mM cysteine, or 2-ME during purification); both purified
[3] = biological target: 6 × His-APT1^C20S (Medicago truncatula); assay: nonreducing SDS-PAGE with immunoblot; 6 × His-APT1 proteins after Ni purification from E. coli, no reducing agent; Tris-Tricine SDS-PAGE system; both purified
[4] = biological target: 6 × His-APT1^C20SC22S (Medicago truncatula); assay: as above
[5] = biological target: 6 × His-APT1^C20SC22SC37S (Medicago truncatula); assay: as above
[6] = biological target: 6 × His-APT1^C20SC37S (Medicago truncatula); assay: as above
[7] = biological target: 6 × His-APT1^C22S (Medicago truncatula); assay: as above
[8] = biological target: 6 × His-APT1^C22SC37S (Medicago truncatula); assay: as above
[9] = biological target: 6 × His-APT1^C37S (Medicago truncatula); assay: as above
[10] = biological target: APT1-GFP fusion protein (p35S:APT1-GFP) in M. truncatula apt1 roots (Medicago truncatula); assay: nonreducing capillary electrophoresis immunoassay (Simple Jess) + other: nonreducing SDS-PAGE with immunoblot; root lysates of p35S:APT1-GFP/apt1 plants in the absence of stress; DTT-free buffers, samples not heated, anti-GFP
[11] = biological target: APT1-GFP fusion protein (p35S:APT1-GFP) in M. truncatula apt1 roots (Medicago truncatula); assay: condition: only after recovery for 96 h from oxidative stress; nonreducing capillary electrophoresis immunoassay (Simple Jess) + other: nonreducing SDS-PAGE with immunoblot; root lysates of p35S:APT1-GFP/apt1 plants after 4 mM H2O2 and recovery under normal conditions for 96 h; anti-GFP

6 × His-APT1 fusion protein (acyl-protein thioesterase 1, Medicago truncatula) (from UniProt A0A218KHF5 1-74) (enzyme)
binding [1]: binds | binding [2]: no binding

6 × His-APT1^C20S (from UniProt A0A218KHF5 1-74) (enzyme)
binding [3]: binds

6 × His-APT1^C20SC22S (from UniProt A0A218KHF5 1-74) (enzyme)
binding [4]: binds

6 × His-APT1^C20SC22SC37S (from UniProt A0A218KHF5 1-74) (enzyme)
binding [5]: no binding

6 × His-APT1^C20SC37S (from UniProt A0A218KHF5 1-74) (enzyme)
binding [6]: binds

6 × His-APT1^C22S (from UniProt A0A218KHF5 1-74) (enzyme)
binding [7]: binds

6 × His-APT1^C22SC37S (from UniProt A0A218KHF5 1-74) (enzyme)
binding [8]: binds

6 × His-APT1^C37S (from UniProt A0A218KHF5 1-74) (enzyme)
binding [9]: binds

APT1-GFP fusion protein (p35S:APT1-GFP) in M. truncatula apt1 roots (from UniProt A0A218KHF5 1-74) (enzyme)
binding [10]: no binding (condition: in the absence of stress) | binding [11]: no binding
